Assay results reported in the supplement of paper PMC11876631.
± gives the standard deviation of the averaged measurements. Laboratory Escherichia coli strains with one amino-acid change in an essential protein, pooled on minimal glucose agar with carbenicillin or gentamicin at twice the control MIC (plus kanamycin and chloramphenicol for the plasmids), 48 h. Fold change of barcode share against drug-free plates; higher = less susceptible. Active = above 20 in both replicates (the paper's putatively resistant). '<' = one read or none on drug, '>' = one read or none on a drug-free plate. Shares are relative, so most strains fall below 1 when a few take over. Listed are strains with at least 15 reads on both drug-free plates, and hits; most hits rest on fewer reference reads. Replicate rank correlation about 0.5. Edits are read from barcodes.

B1: bioC; numbered along this chain (parent)
chain: MATVNKQAIAAAFGRAAAHYEQHADLQRQSADALLAMLPQRKYTHVLDAGCGPGWMSRHWRERHAQVTALDLSPPMLVQARQKDAADHYLAGDIESLPLATATFDLAWSNLAVQWCGNLSTALRELYRVVRPKGVVAFTTLVQGSLPELHQAWQAVDERPHANRFLPPDEIEQSLNGVHYQHHIQPITLWFDDALSAMRSLKGIGATHLHEGRDPRILTRSQLQRLQLAWPQQQGRYPLTYHLFLGVIARE
B2: pdxJ; numbered along this chain (parent)
chain: MAELLLGVNIDHIATLRNARGTAYPDPVQAAFIAEQAGADGITVHLREDRRHITDRDVRILRQTLDTRMNLEMAVTEEMLAIAVETKPHFCCLVPEKRQEVTTEGGLDVAGQRDKMRDACKRLADAGIQVSLFIDADEEQIKAAAEVGAPFIEIHTGCYADAKTDAEQAQELARIAKAATFAASLGLKVNAGHGLTYHNVKAIAAIPEMHELNIGHAIIGRAVMTGLKDAVAEMKRLMLEARG
B3: thrB; numbered along this chain (parent)
chain: MVKVYAPASSANMSVGFDVLGAAVTPVDGALLGDVVTVEAAETFSLNNLGRFADKLPSEPRENIVYQCWERFCQELGKQIPVAMTLEKNMPIGSGLGSSACSVVAALMAMNEHCGKPLNDTRLLALMGELEGRISGSIHYDNVAPCFLGGMQLMIEENDIISQQVPGFDEWLWVLAYPGIKVSTAEARAILPAQYRRQDCIAHGRHLAGFIHACYSRQPELAAKLMKDVIAEPYRERLLPGFRQARQAVAEIGAVASGISGSGPTLFALCDKPETAQRVADWLGKNYLQNQEGFVHICRLDTAGARVLEN
B4: thrA; numbered along this chain (parent)
chain: MRVLKFGGTSVANAERFLRVADILESNARQGQVATVLSAPAKITNHLVAMIEKTISGQDALPNISDAERIFAELLTGLAAAQPGFPLAQLKTFVDQEFAQIKHVLHGISLLGQCPDSINAALICRGEKMSIAIMAGVLEARGHNVTVIDPVEKLLAVGHYLESTVDIAESTRRIAASRIPADHMVLMAGFTAGNEKGELVVLGRNGSDYSAAVLAACLRADCCEIWTDVDGVYTCDPRQVPDARLLKSMSYQEAMELSYFGAKVLHPRTITPIAQFQIPCLIKNTGNPQAPGTLIGASRDEDELPVKGISNLNNMAMFSVSGPGMKGMVGMAARVFAAMSRARISVVLITQSSSEYSISFCVPQSDCVRAERAMQEEFYLELKEGLLEPLAVTERLAIISVVGDGMRTLRGISAKFFAALARANINIVAIAQGSSERSISVVVNNDDATTGVRVTHQMLFNTDQVIEVFVIGVGGVGGALLEQLKRQQSWLKNKHIDLRVCGVANSKALLTNVHGLNLENWQEELAQAKEPFNLGRLIRLVKEYHLLNPVIVDCTSSQAVADQYADFLREGFHVVTPNKKANTSSMDYYHQLRYAAEKSRRKFLYDTNVGAGLPVIENLQNLLNAGDELMKFSGILSGSLSYIFGKLDEGMSFSEATTLAREMGYTEPDPRDDLSGMDVARKLLILARETGRELELADIEIEPVLPAEFNAEGDVAAFMANLSQLDDLFAARVAKARDEGKVLRYVGNIDEDGVCRVKIAEVDGNDPLFKVKNGENALAFYSHYYQPLPLVLRGYGAGNDVTAAGVFADLLRTLSWKLGV

Variants of: B1
Experiment: barcode share on antibiotic plates over drug-free plates; higher = less susceptible
Conditions: with Escherichia coli (laboratory strain); antibiotic: carbenicillin; 2× MIC (3.1 µg/mL)
Experimental: (§1)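 A pool of E. coli strains, each edited to carry one amino-acid change in an essential protein, was grown for 48 h on minimal glucose agar with or without antibiotic; strain barcodes were sequenced; mean of two replicates.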

Variant	fold change of barcode share
L245A	0.181 ± 0.11

Same assay, conditions: with Escherichia coli (laboratory strain); antibiotic: gentamicin; 2× MIC (MIC 0.45 µg/mL)

Variant	fold change of barcode share
L245A	< 0.00776
L149P	< 0.00935
W190D	0.00786 ± 0.0062
L245P	0.25 ± 0.33

Variants of: B2
Experiment: as above
Conditions: with Escherichia coli (laboratory strain); antibiotic: carbenicillin; 2× MIC (3.1 µg/mL)
Experimental: as §1

Variant	fold change of barcode share
V28A	0.258 ± 0.048
V28P	0.547 ± 0.051
V28Q	0.354 ± 0.044
V28W	0.248 ± 0.14
F32A	0.194 ± 0.14
F32D	0.327 ± 0.2
F32P	0.268 ± 0.051
F32Q	0.328 ± 0.17
F32W	0.283 ± 0.3
I42Q	> 28.5 [active]
M73D	> 30.1 [active]
M73Q	0.467 ± 0.01
L93A	0.308 ± 0.077
L93W	0.273 ± 0.036
V94A	1.63 ± 1.1
V94P	> 28.2 [active]
V94Q	> 40.7 [active]
I152A	0.303 ± 0.06
I152W	0.473 ± 0.34

Same assay, conditions: with Escherichia coli (laboratory strain); antibiotic: gentamicin; 2× MIC (MIC 0.45 µg/mL)

Variant	fold change of barcode share
V28A	< 0.00174
V28P	0.00721 ± 0.0016
V28Q	0.00851 ± 0.0007
V28W	0.00374 ± 0.0011
F32A	< 0.00689
F32D	< 0.00384
F32P	< 0.00546
F32Q	< 0.00803
F32W	0.00907 ± 0.0053
L93A	0.472 ± 0.64
L93W	< 0.00553
I152A	0.0117 ± 0.0001
I152W	< 0.02
M73A	0.00604 ± 0.0043

Variants of: B3
Experiment: as above
Conditions: with Escherichia coli (laboratory strain); antibiotic: carbenicillin; 2× MIC (3.1 µg/mL)
Experimental: as §1

Variant	fold change of barcode share
L20A	1.22 ± 0.21
L20D	> 55.8 [active]
L20Q	5.07 ± 1.9
L20W	1.3996 ± 0.00019
V104A	0.759 ± 0.034
V104D	11 ± 2.1
V104P	15.9 ± 8.2
V104Q	18.1 ± 13
V104W	17.6 ± 10
L107A	0.756 ± 0.17
L107P	1.39 ± 0.21
L107Q	1.0315 ± 0.00058
L107W	0.837 ± 0.14
M108A	0.797 ± 0.21
M108D	0.738 ± 0.073
M108P	2.84 ± 0.91
M108Q	1 ± 0.071
M108W	0.669 ± 0.063
F267A	0.585 ± 0.091
F267Q	0.866 ± 0.26
F267W	0.642 ± 0.32
V295A	0.393 ± 0.22
I297A	1.15 ± 1.1
I297P	0.438 ± 0.31
I297W	0.763 ± 0.14

Same assay, conditions: with Escherichia coli (laboratory strain); antibiotic: gentamicin; 2× MIC (MIC 0.45 µg/mL)

Variant	fold change of barcode share
L20A	0.0269 ± 0.015
L20W	0.232 ± 0.27
V104A	0.0203 ± 0.016
L107A	0.00859 ± 0.0036
L107P	0.0144 ± 0.0066
L107Q	0.0168 ± 0.015
L107W	0.0354 ± 0.043
M108A	0.00746 ± 0.0061
M108D	0.00908 ± 0.0071
M108P	0.0413 ± 0.042
M108Q	0.012 ± 0.0024
M108W	0.0145 ± 0.00079
F267A	0.00808 ± 0.0049
F267Q	0.00736 ± 0.0013
F267W	0.012 ± 0.0057
I297A	0.0201 ± 0.011
I297P	< 0.0185
F210W	< 0.0158

Variants of: B4
Experiment: as above
Conditions: with Escherichia coli (laboratory strain); antibiotic: carbenicillin; 2× MIC (3.1 µg/mL)
Experimental: as §1

Variant	fold change of barcode share
F318Q	1.66 ± 0.32
V442P	3.05 ± 0.28
F336P	1.17 ± 0.26
L348A	1.71 ± 1.1
L348D	2.05 ± 0.088
I349P	1.1 ± 0.15
I399Q	0.751 ± 0.2
L348Q	1.87 ± 0.72
V442D	1.51 ± 0.14
F336Q	1.08 ± 0.51
F318A	0.918 ± 0.11
V443D	2.69 ± 0.76
F336A	1.12 ± 0.5
F318D	0.466 ± 0.21
V443P	2.488 ± 0.0035

Same assay, conditions: with Escherichia coli (laboratory strain); antibiotic: gentamicin; 2× MIC (MIC 0.45 µg/mL)

Variant	fold change of barcode share
F318Q	< 0.0175
V442P	0.0356 ± 0.039
F336P	0.082 ± 0.1
L348A	0.0166 ± 0.014
L348D	0.0188 ± 0.012
I349P	0.00494 ± 0.0014
I399Q	0.00839 ± 0.0087
L348Q	0.0102 ± 0.009
V442D	0.022 ± 0.021
F336Q	0.00762 ± 0.0008
F318A	< 0.0057
V443D	0.0198 ± 0.019
F336A	0.0177 ± 0.0036
F318D	< 0.014
V443P	0.0296 ± 0.033
